The whole screen tested about 390,000 compounds, of which about 4,000 (1%) were called active. The shares of active, inactive and inconclusive entries below differ from those in the screen. The call rests on the fitted dose curve; in most records, active means well fitted inhibition curve with a large enough effect; inconclusive means small, poorly fitted or top-dose-only effect; inactive means no such curve, though single readings can be large or run the other way. Potencies beside an inconclusive call are fits to weak or partial responses and may not hold up.
Each compound was assayed against Thioredoxin reductase 1, cytoplasmic (Rattus norvegicus) (UniProt O89049) (assay: qHTS Assay for Inhibitors of Mammalian Selenoprotein Thioredoxin Reductase 1 (TrxR1): qHTS). Conditions: recombinant rTrxR1, NADPH fluorescence consumption, selenite substrate; series mostly up to 114 µM.
Sequence of UniProt O89049 (O89049 whole entry, looked up): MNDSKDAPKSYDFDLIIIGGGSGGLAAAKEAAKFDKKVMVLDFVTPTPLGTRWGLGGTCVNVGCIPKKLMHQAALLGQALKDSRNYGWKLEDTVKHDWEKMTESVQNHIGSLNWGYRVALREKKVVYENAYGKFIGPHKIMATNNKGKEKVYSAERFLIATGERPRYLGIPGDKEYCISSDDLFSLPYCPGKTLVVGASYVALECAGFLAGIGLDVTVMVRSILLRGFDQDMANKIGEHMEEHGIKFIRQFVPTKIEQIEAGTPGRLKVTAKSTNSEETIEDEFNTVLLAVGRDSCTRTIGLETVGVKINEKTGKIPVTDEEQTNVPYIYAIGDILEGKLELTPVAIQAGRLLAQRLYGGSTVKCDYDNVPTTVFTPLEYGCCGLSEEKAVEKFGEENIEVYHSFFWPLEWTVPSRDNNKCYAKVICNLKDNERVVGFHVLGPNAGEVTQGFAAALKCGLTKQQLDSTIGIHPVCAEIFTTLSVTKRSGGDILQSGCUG
In short: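 Rat TrxR1 (90 nM in the dispensed reagent) was pre-reduced with 400 uM NADPH for 5 min at room temperature, then incubated with compound for 15 min. After 400 uM selenite was added, NADPH fluorescence (Ex 340/Em 450 nm) was followed for 8 min.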
Further: nearly all actives have a fitted effect of over 65% in size.
Potency means the concentration at half of the fitted maximal effect; tags describe the fitted curve by direction and shape.

| SMILES | Potency |
| --- | --- |
| O=C1/C(=C\c2ccco2)SC(=S)N1Cc1ccccc1 | inconclusive: 44.7 µM [inhibitor, partial curve] |
| CCCCNC(=S)NNC(=O)c1cc(-c2ccncc2)nc2ccccc12 | inconclusive: 50.1 µM [inhibitor, partial curve] |
| O=P(CCNCc1ccco1)(c1ccccc1)c1ccccc1 | inconclusive: 56.2 µM [inhibitor, partial curve, poor fit] |
| Nc1ncn(C(=S)Nc2ccccc2)n1 | active: 15.8 µM |
| CC(=O)N1[C@H](Cc2ccccc2)C=C[C@]1(C)C(=O)NCc1ccccn1 | inactive |
| c1ccc(-c2nc3ccccn3c2NC2CCCC2)nc1 | inactive |
| O=C(N/N=C/c1ccc([N+](=O)[O-])o1)C1CC1 | inconclusive: 50.1 µM [inhibitor, partial curve, poor fit] |
| CC(C)CNC(=O)C1Nc2ccc(OC(F)(F)F)cc2C2C=CCC12 (centres undefined) | inconclusive: 28.2 µM [inhibitor, partial curve, poor fit] |
| COc1ccc2[nH]c(=O)c(CN(C3CCCCC3)C(c3nnnn3Cc3ccco3)C(C)C)cc2c1 (centres undefined) | inconclusive: 35.5 µM [inhibitor, partial curve] |
| C/C(=C\c1ccccc1)CN1CCN(c2cccc(Cl)c2)CC1 | inactive |
| COc1ccc(C)cc1NC(=O)CNC(=O)[C@@H]1Cc2ccccc2CN1 | inconclusive: 89.1 µM [inhibitor, single point] |
| c1ccc(-c2onc(-c3ccco3)c2-c2ccc3c(c2)OCO3)cc1 | active: 50.1 µM |
| O=C(Nc1ccc(CN2CCOCC2)cc1)c1ccc(Cl)cc1 | inactive |
| O=C(O)C/C=C(/NC(=O)OCc1ccccc1)C(=O)OCc1ccccc1 | inconclusive: 63.1 µM [inhibitor, partial curve, poor fit] |
| CC[n+]1c(/C=C/N(C)c2ccccc2)oc2ccc(F)cc21 | inconclusive: 39.8 µM [inhibitor, single point] |
| COc1ccc(/C=C2\SC(c3ccc(C)cc3)=NC2=O)cc1OC | inconclusive: 28.2 µM [inhibitor, single point] |
| CN(C)c1ccc(C(=S)NC2CCCCC2)cc1 | inconclusive: 22.4 µM [inhibitor, partial curve, poor fit] |
| O=C(C(Br)=Cc1ccccc1)c1ccccc1 | inconclusive: 56.2 µM [inhibitor, partial curve] |
| COc1ccc(Br)cc1CNC(=O)c1cc(=O)[nH]c2ccc(S(=O)(=O)N3CCCCC3C)cc12 (centres undefined) | inactive |
| CCOC(=O)c1cc2c(C)n(-c3ccc(C)cc3)c(C)c2ccc1=O | inconclusive: 28.2 µM [inhibitor, partial curve, poor fit] |
| COc1ccc(-c2nc(NC(C)=O)sc2-c2ccc(OC)cc2)cc1 | inactive |
| COC(=O)CSc1[nH]c2ccccc2c1[N+](=O)[O-] | inconclusive: 44.7 µM [inhibitor, partial curve] |
| COc1ccc(Cl)cc1C(=O)NNC(=O)CCNS(=O)(=O)c1ccccc1 | inconclusive: 44.7 µM [inhibitor, partial curve] |

| SMILES | Potency |
| --- | --- |
| COc1ccc(C(=O)Nc2nc(C)cc(C)n2)cc1[N+](=O)[O-] | inconclusive: 89.1 µM [inhibitor, single point] |
| CC(=NNC(=S)N1CC2CCC(CC2)C1)c1cccc(C)n1 | inconclusive: 4.47 µM [inhibitor, full curve, poor fit] |
| COCCNC(=S)Nc1ccc2nc(N3CCCC3)cc(C)c2c1 | inconclusive: 25.1 µM [inhibitor, full curve] |
| CCSc1nc(-c2ccc(OC)cc2)nc2c1Cc1c(CO)cnc(C)c1O2 | inactive |
| Cc1ccc(-n2c3nc(=O)n(C)c(=O)c-3cc3ccccc32)c(C)c1 | inconclusive: 56.2 µM [inhibitor, partial curve, poor fit] |
| CCOC(=O)C1=CN(Cc2ccco2)S(=O)(=O)NC1c1ccc(C(F)(F)F)cc1 (centres undefined) | inconclusive: 79.4 µM [inhibitor, partial curve] |
| CCOc1ccc(N(Cc2cc3cc(C)ccc3[nH]c2=O)C(=O)COC)cc1 | inconclusive: 39.8 µM [inhibitor, single point] |
| C/C=C/C1=CC(=O)C[C@H](c2ccc(OC)c(OC)c2)C1 | inconclusive: 56.2 µM [inhibitor, single point] |
| Cc1nc(CNS(=O)(=O)c2cc([N+](=O)[O-])ccc2C)cs1 | inconclusive: 89.1 µM [inhibitor, partial curve, poor fit] |
| N#Cc1c(NC(=O)c2ccc(Cn3cc(Br)cn3)o2)sc2c1CCCCCC2 | inactive |
| CC(N=C1NS(=O)(=O)c2ccccc21)C(=O)Nc1ccc(F)cc1Cl (centres undefined) | inactive |
| CC(C)(C)c1cc(NC(=O)CCl)n(-c2ccccc2)n1 | inconclusive: 44.7 µM [inhibitor, partial curve] |
| COc1cccc(CNC(=O)C2CCCN(c3nnc(-n4c(C)ccc4C)s3)C2)c1OC (centres undefined) | inconclusive: 50.1 µM [inhibitor, partial curve] |
| Cc1ccc(/C=C/c2nc3ccccc3s2)s1 | inactive |
| Cc1ccc2nc(Cl)c(/C=N/Nc3nc(C)cc(C)n3)c(=O)n2c1 | inconclusive: 44.7 µM [inhibitor, partial curve] |
| COc1cc(C2C(C#N)=C(N)OC3=C2C(=O)CC(C)(C)C3)cc2c1OCO2 (centres undefined) | inconclusive: 25.1 µM [inhibitor, partial curve, poor fit] |
| C=CC(=O)Nc1cccc(Nc2nc(N[C@H]3CC[C@H](N(C)C)CC3)nc3c2ncn3C(C)C)c1 | inconclusive: 15.8 µM [inhibitor, full curve] |
| O=C(O)C1CC=CCC1C(=O)N1CC=C(c2ccccc2)CC1 (centres undefined) | inconclusive: 39.8 µM [inhibitor, single point] |
| O=C(CSc1nncs1)N1c2ccccc2Sc2ccccc21 | inconclusive: 14.1 µM [inhibitor, partial curve] |
| CCCC[C@H]1CCCO[C@@](C(=O)NCc2ccc(C)o2)(C(F)(F)F)C1 | inconclusive: 70.8 µM [inhibitor, single point] |
| O=C(COC(=O)c1ccc[nH]c1=O)NCCC1=CCCCC1 | inconclusive: 89.1 µM [inhibitor, partial curve, poor fit] |
| O=C(On1c(-c2ccccc2)nc2ccccc2c1=O)c1ccco1 | active: 5.01 µM |
| CCc1c(C)nc2ncnn2c1NCCc1ccc(OC)c(OC)c1 | inactive |

| SMILES | Potency |
| --- | --- |
| CC(C)(C)OC(=O)C(C)(C)O/N=C(\C(=O)O)c1csc(N)n1 | inconclusive: 89.1 µM [inhibitor, single point] |
| O=C(CCn1c(=O)c2sccc2n(CC(=O)OCc2ccccc2)c1=O)NCc1ccco1 | inconclusive: 35.5 µM [inhibitor, single point] |
| CC(=O)OC1C(N2CCCCC2)c2c(ccc(/C=C/C(=O)N3CCCCC3)c2O)OC1(C)C (centres undefined) | inactive |
| COc1cc2c(cc1OC)-c1cc(NC3CCCCCCC3)nc(=O)n1CC2 | inactive |
| COc1ccc(-c2cc(C(F)(F)F)nc(SCC(=O)N(C)Cc3cn(C)nc3C)n2)cc1OC | inconclusive: 79.4 µM [inhibitor, single point] |
| O=C1c2cccc3cccc(c23)C(=O)N1CCN1CCN(C(=S)Nc2ccccc2)CC1 | inactive |
| CCOc1ccc(S(=O)(=O)Nc2ccccc2C(=O)N2CCOCC2)cc1 | inactive |
| COc1ccc(C2CC(c3cccc(F)c3)=NN2c2ccc(S(N)(=O)=O)cc2)cc1 (centres undefined) | inconclusive: 35.5 µM [inhibitor, single point] |
| Nc1c(C(=O)N2CCOCC2)sc(=S)n1-c1ccccc1 | inactive |
| CCOC(=O)c1cc(-c2ccc(/C=C3/C(=O)NC(=O)C(C#N)=C3C)o2)ccc1Cl | active: 10 µM |
| Cc1ccc2oc(C(=O)Nc3c(C(=O)Nc4cccc(Cl)c4)oc4ccccc34)cc(=O)c2c1 | inactive |
| CCCn1nnc(NC(=S)NC(=O)c2cccs2)n1 | inconclusive: 56.2 µM [inhibitor, partial curve] |
| Cc1c(C(=O)N2CCN(c3ccc(C(F)(F)F)cn3)CC2)oc2ccccc12 | inconclusive: 35.5 µM [inhibitor, single point] |
| Cc1ccc2nc(Cl)c(C3CC(c4ccco4)=NN3S(C)(=O)=O)cc2c1 (centres undefined) | inconclusive: 79.4 µM [inhibitor, partial curve] |
| CCOC(=O)C1CCCN(C(=O)c2ccc(CS(=O)(=O)c3ccc(C)cc3)o2)C1 (centres undefined) | inconclusive: 50.1 µM [inhibitor, partial curve, poor fit] |
| Cc1ccc(/C=N/n2c(-c3ccccn3)n[nH]c2=S)o1 | inconclusive: 22.4 µM [inhibitor, full curve] |
| CCCn1c(=N)c(C(=O)NCC2CCCO2)cc2c(=O)n3cc(C)ccc3nc21 (centres undefined) | inconclusive: 50.1 µM [inhibitor, partial curve, poor fit] |
| CC1=NN(C(N)=S)C(=O)C1N=Nc1ccc(F)cc1 (centres undefined) | inconclusive: 39.8 µM [inhibitor, single point] |
| COCCCNC(=O)/C=C/c1ccc(Cl)cc1Cl | inactive |
| COc1ccc(S(=O)(=O)N2CCC(c3nc4ccccc4s3)CC2)cc1OC | inactive |
| C=CCN(CC=C)C(=S)NC(=O)Cc1cccc2ccccc12 | inconclusive: 12.6 µM [inhibitor, partial curve, poor fit] |
| O=C(Cn1nc2c(cc1=O)CCCC2)NCc1ccc(Cl)cc1 | inactive |
| COc1ccc(S(=O)(=O)NCC(c2ccco2)S(=O)(=O)c2cccs2)cc1F (centres undefined) | inconclusive: 8.91 µM [inhibitor, partial curve, poor fit] |
